Values marked as one replicate rest on one cluster of the flow cell; about a third of the high ones do not repeat.
System: ATP
Test: switch fluorescence ratio, 500 uM ATP over buffer (Cy3 cluster intensity, sum of 5 cycles each) (fold (ratio)); higher = stronger signal-on switching upon ATP binding; sequences stand for … in TCGTCGGCAGCGTCAGATGTGTATAAGAGACAGTTTTTTTTTTTTTTTTTTTTTTTTT…TC
Conditions: aptamer strand: ATP DNA aptamer (quencher-CACCTGGGGGAGTATTGCGGAGGAAGG + anchor), 100 nM annealed; ATP concentration: 500 uM; one replicate
Method in brief: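 Clusters with intensities outside 100-1000 RFU were excluded. The remaining Cy3-labelled switching-strand clusters on a modified Illumina MiSeq flow-cell had been annealed to 100 nM quencher-labelled ATP aptamer and imaged in selection buffer, then after 15 min with 500 uM ATP at 22 °C, for five cycles separated by NaOH stripping and re-annealing. The fluorescence ratio, averaged per switch-domain sequence, is each cluster's summed target-cycle Cy3 intensity over its summed buffer-cycle Cy3 intensity.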
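Note: ATP exposure 15 min at 22 °C before imaging.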

Sequence	switch fluorescence ratio
GAGTTTATAC	1.01
TCAAATGAA	0.992
ATTATGCCGC	1.19
CAAAAGATTT	0.964
GCATGAATTT	0.994
AGAATCTAGT	0.976
CCTAACAGCT	1.1
CGAGATACCG	0.992
TAAGTGATCA	1.04
AGTGAGTTTG	0.981
GCGCCACTTA	0.993
CTATCTGG	0.987
TTCCACGGGA	1.07
TGGATAGTCT	1.09
GCGGTTTGGA	0.99
GTTCAGGGGT	0.959
ATGTCAGTGC	0.958
GCCGACCGGA	0.98
GCTCCTCAGC	1.18
TTCGATTACC	0.967
TGCTTGGTGG	0.99
TAATACTTGT	0.933
GTAGTTTAAG	1.02

Sequence	switch fluorescence ratio
ATGCTAACCG	1.02
CGGACCCGTC	0.957
TCCTATATCT	1.08
GACCTAGGAC	1
ACGGCGAAAC	1.57
GCCCGCACCG	1.24
TAATAGAAAC	0.954
TAAATTGAGC	0.995
AGGTGTGGAC	0.967
CATTGATGGG	0.945
CTCAGAAGC	1.09
CAGTTTATGG	0.998
ATTGCTTTGC	1.03
TTCGGGCGCA	1.09
GAAGTCTGAG	0.992
ATAATTCAAA	1.02
AAGTCAAAAA	1.02
TACTAGACGG	1.32
AATACTCGCA	1.22
TTAGACGACA	1.14
GTCAGACAGG	1.02
TGTTACTCCG	1.09
TAGTGACTTT	0.986

Sequence	switch fluorescence ratio
AAAGTTGTAA	0.986
AGTTAATGGT	0.975
TTTTCGTTAC	1.31
CAGTGAGAGC	0.95
TTCGGCGCAT	2.64
AGTTTCGTTT	0.989
CCATTATGTG	1
TTTGAAGGCC	0.953
ATCCTTCTAT	0.971
GTAGAGGTTG	0.948
GCTAATTCCA	1
ACTGATGCGG	1.01
GGCATGACGC	1.01
TTCTGGTAGT	0.998
CTGACAGAAA	2.28
CGTTTCAGAG	0.994
AAAAAATTTC	1.04
TTATTCAAGT	1.01
GAGCTTAATA	1.01
TATTCGACCT	1.18
GTAAAGATCT	0.991
ATGTACAATC	1.14
GGACTGTCTG	0.949

Sequence	switch fluorescence ratio
GACTAGTTCG	0.996
AGAGTAGCTC	1.05
ACGCTGAGTC	1.12
CTTGTTGACC	0.989
GTTTGGATGG	0.943
GGAATCCAA	0.997
GTTGGGCTGT	0.987
GCTACATCTA	1.01
CAGTACATGA	1.02
GATGGAGCTC	1.05
TGCTCGTCCG	1
TAGTAGCA	1.06
CGCGGAAGTG	1.11
CGTAGTATGT	1.03
GCGTTGGTAC	1.19
GCACAGGGAG	1.11
GGGGAGCAGA	1.06
GGGACTTCGC	1.12
GGAAGTATGG	1.01
AGATTGACTG	0.981
GTGATGCTTC	1.01
TGCGGTACTT	1.11
CCCGAACTGA	0.967

Sequence	switch fluorescence ratio
CGACTTCGGG	0.99
GACTAGCACT	1.14
GACTGAGA	0.982
CACGGTTAAT	1.07
TCTAGGTGTT	1.37
TAAAGAAAAC	0.937
CTATGATCG	0.94
TTGCACAAC	1.1
GAGAGGCGCG	1.07
GTAAATATTG	1.07
CAAAAACACC	1.09
GCTTTAGGGT	0.986
AAGGGGTCAG	1.01
TGTGGCGACT	0.983
GAGGCGGGAT	0.965
GAAGCGGCGA	1.02
TCTTGGTCTA	0.954
AGTTGAATCG	1.01
AAATTAATGG	1.06
TGCTTATTGT	0.977
TTATAGTGT	1.05
TTTGCTAATT	1.07
CGGCCGTAAC	1.07

Sequence	switch fluorescence ratio
TATCCCCTGG	1.61
GCTCAAATAC	3.03
TAAATAGGCG	1.05
TCGACTCTTC	1.07
AATCCGGAGA	1.05
TGGGCGGACG	1.02
ACTCGGTGAC	1.11
AAATACGTCA	1.14
ATTCCTACTA	1.07
TGCAAAGGGA	0.957
GGGGTAGCG	0.97
CTATGTGAC	1.04
TTTCAGAAG	1.08
AACCGGCATC	1.12
ACATTATAGG	1.02
CGGAAGTGGG	0.975
CTTTCGAGGA	1.04
GAATGTCGGA	1
ACTTTACTAT	1.2
CACACTGACC	1.23
CCAGAGAGCA	0.997
AAGCAATGTG	1.21
AAAAGAGTC	0.987

Sequence	switch fluorescence ratio
GGGCTCGGGA	0.968
AGGAAGGAAT	1.02
ATAGGCTGCT	0.965
ACGTCCGGCC	1.08
CAATTCTTGG	1.03
GGCGTTTGA	1
GCGTACTAAA	1.01
ACGAACAATT	1.24
AATATTCAAT	1.01
GGAATACTGG	1.21
AATGGTCTGC	0.954
CCATGTTTTC	0.981
GCAGGGTGCC	0.994
TTGCACCGGA	0.962
CGGAAGGG	1
GTACATGCTG	0.954
ATGTTGTGTC	0.907
CATAGGGTAG	0.975
TATCAGTACA	1.02

— the supplement of paper PMC10126150
